{"source": "patent US6783966B1", "about": "(priority 2000, dated 2004)", "molecular_target": "T1, α1,4 Gal-T (Homo sapiens, UniProt Q9NPC4)", "T1 sequence (Q9NPC4 1-353)": "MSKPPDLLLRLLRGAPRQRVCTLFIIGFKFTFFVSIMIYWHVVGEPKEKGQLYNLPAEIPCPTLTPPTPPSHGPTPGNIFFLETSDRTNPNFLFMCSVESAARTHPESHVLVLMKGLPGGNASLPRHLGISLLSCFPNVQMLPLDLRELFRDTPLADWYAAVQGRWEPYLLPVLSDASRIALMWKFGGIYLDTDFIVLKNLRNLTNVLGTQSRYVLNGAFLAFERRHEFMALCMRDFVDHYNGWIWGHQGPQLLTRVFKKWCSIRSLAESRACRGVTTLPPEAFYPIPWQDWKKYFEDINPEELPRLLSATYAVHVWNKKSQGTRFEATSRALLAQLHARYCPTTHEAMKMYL", "assay": "Enzyme assay of α1,4 Gal-T in membrane fraction of transfected L cells", "conditions": "potential acceptors, FIG. 4B", "procedure": "Membrane fractions were prepared as described(ref.19) from L cells transfected with the gene for α1,4 Gal-T as obtained in Example 1. The enzyme activity of α1,4 Gal-T in the membrane fraction was measured as descibed previously(ref.4). The reaction mixture for the assay contained the following in a volume of 50 μl:50 mM sodium cacodylate-HCl (pH 6.0), 10 mM MgCl2, 5 mM galactonolactone (Sigma), 0.3% Triton X-100 (Sigma), 0.4 mM (LacCer), 2.9 mM phosphatidylglycerol (Sigma), 0.2 mM UDP-Gal (Sigma), UDP-[^14C] Gal (2.5×10^5 dpm) (NEN), and membrane fraction containing 50 μg protein. The protein concentration was determined by Lowry's methods(ref.20). The products was isolated by a C18 Sep-Pak cartridge (Waters, Milford, Mass.) and analyzed by thin layer chromatography (TLC) and autoradiography using a Bio-Imaging Analyzer BAS2000 (Fuji Film, Tokyo).\nEnzyme activity toward other potential acceptors was also examined (FIG. 4B)."}
{"substance": "paragloboside [paragloboside(PG)]", "values": [{"measurement": "significant levels of [14C] galactose incorporation (acceptor)", "value": "not responsible for the synthesis of P1 antigen"}]}
